Data taken from PubChem BioAssay AID445 (National Center for Advancing Translational Sciences (NCATS), 2006).
Screen size: about 110,000 compounds; about 40 (0.04%) were called active. Inconclusive means that the source gave no clear call. Such entries were picked first, then a sample of the others. Calls come from the whole dose curve; as a rule, active = well fitted curve in the direction sought with a large enough effect in the signal ratio (not every such curve was filed as active); inconclusive = small, poorly fitted or top-dose-only effect, or a change in a side signal; inactive = flat fitted curve, though single readings scatter; the % refers to the signal ratio. Where the call is inconclusive, the potency comes from a doubtful curve fit.

Assay: IkB Signaling;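 for IkBa stabilization activation: 0% = basal untreated cells and 100% = reference inhibitor full response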
Conditions: ABC-DLBCL IkBa-CBG/CBR dual luciferase ratio (green luciferase fused to IkBa over red control in OCI-Ly3 lymphoma cells), 4 h; IkBa stabilization activation: at 57.1 µM (top of the series), scaled: untreated 0%, proteasome inhibitor 100% unless noted
How it was run: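 Curves were fitted separately to fusion (green), unfused (red) and ratio luminescence, then classed by r2, magnitude and activity. Cells: OCI-Ly3, 4 h compound plus doxycycline at 37C; 10 uM MG-132 defined full response.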
Potency is the fitted concentration of half-maximal effect.

| SMILES | IkBa stabilization activation | Potency |
| --- | --- | --- |
| O=S(=O)(c1ccccc1)N1CN2CN(C1)CN(S(=O)(=O)c1ccccc1)C2 | inactive: -0.919% [at 11.4 µM, scaled: untreated 0%, proteasome inhibitor 100%] | – |
| COC(=O)c1ccccc1NC(=O)Cn1c(=O)n(CCCC(=O)NCc2ccccc2OC)c(=O)c2ccccc21 | inconclusive: 4.6% [signal inhibitor] | – |
| CC(C)N(Cc1nc(-c2ccccc2)no1)C(=O)c1ccc(Cl)cc1 | inconclusive: -1.56% [signal inhibitor] | – |
| CCOc1ccc(-n2nc(CO)c(C(=O)NCc3cccc(OC)c3)n2)cc1 | inconclusive: -0.0545% [signal inhibitor] | – |
| Cc1cc(C(=O)CN2C(=O)NC3(CCCc4ccccc43)C2=O)c(C)n1Cc1cccs1 (centres undefined) | inactive | – |
| O=C(CCC1N=C2c3ccccc3N=C(SCc3ccc(F)cc3)N2C1=O)NC1CCCCC1 (centres undefined) | inconclusive: -0.272% [signal inhibitor] | – |
| Cc1ccc(-c2oc3ccccc3c(=O)c2O)cc1 | – | inconclusive: 20 µM [rising, partial curve] |
| COc1cc2cc(CNc3ccccc3)c(=O)n(CC(=O)Nc3cc(C)cc(C)c3)c2cc1OC | inconclusive: 3.76% [signal inhibitor] | – |
| Cc1ccc(-c2cc(C(F)(F)F)nn2-c2ccc(S(N)(=O)=O)cc2)cc1 | inconclusive: 11.6% [signal inhibitor] | – |
| CC(=O)N1CCCc2cc(S(=O)(=O)N3CCN(c4cccc(C(F)(F)F)c4)CC3)ccc21 | inconclusive: 3.63% [signal inhibitor] | – |
| Cc1oc(/N=C/c2c(O)ccc3ccccc23)c(C#N)c1C | inactive | – |
| c1ccc2sc(N3CCN(Cc4nnnn4CC4CCCO4)CC3)nc2c1 (centres undefined) | inactive | – |
| CCOc1ccc(NC(=O)Nc2ccc3c(c2)N(C)C(=O)CS3)cc1 | inconclusive: 14.2% [signal inhibitor] | – |
| O=C1CCCN1CCCNc1ncnc2c1[nH]c1ccc(Cl)cc12 | inactive | – |
| Cc1ccc(-n2nc(C)c3c(C(=O)O)cc(C)nc32)cc1 | inconclusive: -1.5% [signal inhibitor] | – |
| CCOc1ccc(-c2cc(C(=O)NCCc3ccccc3)c3c(-c4ccc(C)cc4)[nH]nc3n2)cc1 | inactive | – |
| Cc1ccc(Oc2nc3ccccn3c(=O)c2/C=C(\C#N)c2nc3ccccc3s2)c(C)c1 | – | inconclusive: 6.31 µM [signal inhibitor, single point] |
| CCN(CC)c1ccc(NS(=O)(=O)c2ccc(-c3coc(C)n3)cc2)c(C)c1 | inconclusive: 3.74% [signal inhibitor] | – |
| CC(=O)N1CCc2c(sc3c2c(=O)n(-c2cccc(Cl)c2)c(=O)n3Cc2ccc(F)cc2Cl)C1 | inconclusive: -0.716% [signal inhibitor] | – |
| Cc1nn(C)c2c1c(C(F)(F)F)cc(=O)n2CC(=O)N1CCN(c2ccccc2F)CC1 | inconclusive: 3.34% [signal inhibitor] | – |
| Cc1ccccc1Cn1nc(C)c(NC(=O)c2cc(-c3cccs3)on2)c1C | inactive | – |
| O=C(Cn1c(=O)n(-c2ccccc2)c(=O)c2c3c(sc21)CCCC3)Nc1ccccc1 | inactive | – |
| CCOC(=O)c1noc2nc(C)n(CC(=O)Nc3ccc(OC)c(Cl)c3)c(=O)c12 | inactive | – |

| SMILES | IkBa stabilization activation | Potency |
| --- | --- | --- |
| CCNc1sc(C(=O)c2cccs2)c(N)c1-c1nc2ccccc2s1 | – | inconclusive: 20 µM [rising, partial curve] |
| O=C(Oc1cccc2c(O)cccc12)c1ccccc1 | inactive | – |
| O=C(CCC1N=C2c3ccccc3N=C(SCc3ccccc3Cl)N2C1=O)N1CCN(c2ccccc2)CC1 (centres undefined) | inactive | – |
| C=CCNC(=O)c1sc(=S)n(-c2ccc(C(=O)OCC)cc2)c1N | inactive | – |
| O=C1c2cccc3cccc(c23)N1CN1CCN(c2ccccn2)CC1 | inconclusive: 2.63% [signal inhibitor] | – |
| Cc1ccc(C)c(NC(=O)CSc2ncc3c(n2)-c2cc(Cl)ccc2N(Cc2ccccc2F)S3(=O)=O)c1 | inconclusive: 0.304% [signal inhibitor] | – |
| CCCSCCCNC(=O)c1cc2n(n1)CCCN(Cc1ccc(C)cc1)C2=O | inactive | – |
| CC1(C)CC(=O)c2cc(-c3nc(-c4ccc(Cl)cc4)cs3)c(=O)n(-c3ccc(F)cc3)c2C1 | inconclusive: 9.87% [signal inhibitor] | – |
| CCCC(O)(CCN1CCOCC1)c1ccc(Br)cc1 (centres undefined) | inactive | – |
| COc1ccc(-c2oc3ncn4nc(-c5ccccc5Cl)nc4c3c2-c2ccc(OC)cc2)cc1 | inactive | – |
| Cc1cccc(OCCSc2nc3ccc(NC(=O)COc4ccccc4F)cc3s2)c1 | inactive | – |
| COc1cc2c(cc1OC)C(COc1ccc3c(C)cc(=O)oc3c1)N(C(=O)c1ccco1)CC2 (centres undefined) | inactive | – |
| Cc1noc2ncnc(N3CCN(c4ccccc4F)CC3)c12 | inactive | – |
| COc1ccc(CN(Cc2ccco2)c2cnc(S(C)(=O)=O)nc2C(=O)Nc2ccc(C)c(C)c2)cc1 | inconclusive: -0.84% [signal inhibitor] | – |
| Cc1cc(OCC(=O)Nc2cc(-c3nn4c(C)nnc4s3)ccc2C)ccc1Cl | inconclusive: 2.12% [signal activator] | – |
| COCc1[nH]nc2c1C(C1C=CCCC1)C(C#N)=C(N)O2 (centres undefined) | inconclusive: 3.04% [signal inhibitor] | – |
| COc1ccc(-c2cc(C(F)(F)F)nc(NCCc3ccccc3)n2)cc1 | inconclusive: 2.11% [signal inhibitor] | – |
| CC(C)Cn1c2nc3ccccc3nc2c2c(=O)n(CCN3CCOCC3)cnc21 | inactive | – |
| O=C(NCCc1ccccc1)c1cc2sccc2n1Cc1ccc(F)cc1 | inactive | – |
| Cc1ccc(NC(=O)CSc2nc3ccc(NC(=O)c4ccco4)cc3s2)c(C)c1 | inconclusive: 4.2% [signal inhibitor] | – |
| CNC(=O)c1c(NC(=O)c2ccc(S(=O)(=O)N3CCCC(C)C3)cc2)sc2c1CCC2 (centres undefined) | inactive | – |
| COc1cc2c(cc1OC)-c1cc(NC3CC3)nc(=O)n1CC2 | inactive | – |
| CC(C)(C)c1ccc(OCC(=O)NC(Cc2c[nH]c3ccccc23)C(=O)O)cc1 (centres undefined) | inconclusive: 5.88% [signal inhibitor] | – |

| SMILES | IkBa stabilization activation | Potency |
| --- | --- | --- |
| CCCCN(CC)CCNS(=O)(=O)c1cccc2cccnc12 | inactive | – |
| O=C(c1ccco1)N1CCN(C(=O)c2cc(-c3ccccn3)nc3ccccc23)CC1 | inconclusive: 0.347% [signal inhibitor] | – |
| COc1cc(C(=O)NCCS(=O)(=O)N2CCN(c3ccccc3)CC2)cc(OC)c1OC | inconclusive: -4.62% [signal inhibitor] | – |
| COc1ccc(-c2cc3nc(C)c(CCC(=O)N4CCN(c5cc(C)ccc5C)CC4)c(C)n3n2)c(OC)c1 | – | inconclusive: 20 µM [signal inhibitor, partial curve] |
| COc1ccc(N2CCN(S(=O)(=O)CCNC(=O)c3ccc(OC(C)C)cc3)CC2)cc1 | inconclusive: -0.758% [signal inhibitor] | – |
| CN(C(=O)CSc1nc2ccc(NC(=O)COc3ccccc3Cl)cc2s1)c1ccccc1 | inconclusive: 2.22% [signal inhibitor] | – |
| COc1cccc2sc(Nc3nc(C)c(C(C)=O)s3)nc12 | inconclusive: 9.86% [signal activator] | – |
| COc1ccccc1N1CCN(C(=O)C2CCCN(S(=O)(=O)c3ccc4c(c3)oc(=O)n4C)C2)CC1 (centres undefined) | inconclusive: 0.978% [signal inhibitor] | – |
| Cn1c(N)c(C(=O)COC(=O)Cc2ccsc2)c(=O)n(C)c1=O | inactive | – |
| CCOC(=O)c1cccc(NC(=O)c2ccc3snnc3c2)c1 | inconclusive: -0.573% [signal inhibitor] | – |
| CCc1ccc(-n2c(N3CCN(c4cccc(C)c4C)CC3)nc3ccccc3c2=O)cc1 | inconclusive: 1.24% [signal inhibitor] | – |
| Cc1ccc(Nc2nc(N)nc(N)c2S(=O)(=O)c2ccccc2)cc1 | inconclusive: 3% [signal inhibitor] | – |
| COC(=O)c1sccc1S(=O)(=O)N(CC(=O)NCc1ccccc1)c1ccc(C)cc1 | inconclusive: -0.145% [signal inhibitor] | – |
| COc1ccccc1C(=O)Nc1nc(-c2ccc(Br)cc2)ns1 | – | inconclusive: 31.6 µM [signal inhibitor] |
| Fc1cccc(-c2cc3nc4c(c(N5CCN(c6cnccn6)CC5)n3n2)CCCC4)c1 | inconclusive: 16.3% [signal inhibitor] | – |
| COC(=O)C1CCN(C(c2ccccc2Cl)c2sc3nc(-c4ccco4)nn3c2O)CC1 (centres undefined) | inactive | – |
| Cc1cc(C(=O)COc2cccc(-n3cnnn3)c2)c(C)n1-c1ccccc1 | inconclusive: 6.79% [signal inhibitor] | – |
| CN(C)CN1C(=O)S/C(=C2/C(=O)N(CN(C)C)c3ccccc32)C1=O | inactive: 2.77% [at 11.4 µM, scaled: untreated 0%, proteasome inhibitor 100%] | – |
| CCOC(=O)CN1C(C(=O)c2ccccc2)=C(OC(=O)c2ccccc2)c2ccccc2S1(=O)=O | inconclusive: 6.67% [signal inhibitor] | – |
| Cc1ccc(NC(=O)C2CCCN(S(=O)(=O)c3ccc(F)cc3)C2)cc1 (centres undefined) | inconclusive: 2.71% [signal inhibitor] | – |
| CC(C(=O)NCc1ccc2c(c1)OCO2)N1c2cccc3cccc(c23)S1(=O)=O (centres undefined) | inconclusive: 3.02% [signal inhibitor] | – |
| CC1=C(c2ccc(C)c(C)c2)S(=O)(=O)N=C1N1CCC(C(=O)NCc2ccc(Cl)cc2)CC1 | inconclusive: 2.91% [signal inhibitor] | – |
| O=C(NCCC1=CCCCC1)c1ccc2c(c1)N(Cc1ccc(Cl)cc1)C(=O)c1ccccc1S2=O (centres undefined) | inconclusive: 1.63% [signal inhibitor] | – |
